Assay results from PubChem BioAssay AID881 (National Center for Advancing Translational Sciences (NCATS), 2007).
In all, about 110,000 compounds went through this assay and about 610 (0.55%) were called active. This list was built around the results that the source calls inconclusive (neither active nor inactive); the mix of calls is not that of the screen. The call rests on the fitted dose curve; in most records, active means well fitted inhibition curve with a large enough effect; inconclusive means small, poorly fitted or top-dose-only effect; inactive means no such curve, though single readings can be large or run the other way. Potencies beside an inconclusive call are fits to weak or partial responses and may not hold up.

biological target: Polyunsaturated fatty acid lipoxygenase ALOX15B (Homo sapiens) (UniProt O15296); assay: qHTS Assay for Inhibitors of 15-hLO-2 (15-human lipoxygenase 2); details: purified 15hLO-2, xylenol orange hydroperoxide absorbance; activity change, negative = inhibition: at 57.1 µM (top of the series) unless noted; further: nearly all actives have a fitted effect of over 60% in size
UniProt O15296, sequence (O15296 whole entry, looked up): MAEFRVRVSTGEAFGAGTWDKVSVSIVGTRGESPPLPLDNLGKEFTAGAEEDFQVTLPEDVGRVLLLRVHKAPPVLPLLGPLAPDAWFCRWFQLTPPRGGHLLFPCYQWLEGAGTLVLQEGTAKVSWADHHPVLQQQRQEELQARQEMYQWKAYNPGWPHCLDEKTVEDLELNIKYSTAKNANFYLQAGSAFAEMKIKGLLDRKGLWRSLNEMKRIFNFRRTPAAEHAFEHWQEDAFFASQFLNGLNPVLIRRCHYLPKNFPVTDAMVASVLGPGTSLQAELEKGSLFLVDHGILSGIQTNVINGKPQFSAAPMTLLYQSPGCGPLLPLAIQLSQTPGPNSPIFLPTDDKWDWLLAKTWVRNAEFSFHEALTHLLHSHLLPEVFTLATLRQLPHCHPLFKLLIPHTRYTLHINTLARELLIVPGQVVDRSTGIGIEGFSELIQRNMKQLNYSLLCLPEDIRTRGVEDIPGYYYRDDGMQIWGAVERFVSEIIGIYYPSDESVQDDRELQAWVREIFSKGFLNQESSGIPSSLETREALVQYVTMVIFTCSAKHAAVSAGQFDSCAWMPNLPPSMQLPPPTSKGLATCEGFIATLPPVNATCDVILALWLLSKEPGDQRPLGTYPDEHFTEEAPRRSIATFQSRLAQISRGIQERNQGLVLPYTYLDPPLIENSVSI
Summary of the method: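 Purified human 15hLO-2 (50 nM final) preincubated with compounds 15 min at room temperature in 25 mM Hepes pH 7.5, 0.01% Triton X-100, then 45 uM arachidonic acid added for 90 min; hydroperoxide detected via ferrous/xylenol orange, 573/405 nm absorbance ratio.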
On the % scale 0 is the no-effect control and ±100 the full control effect; potency means the concentration at half of the fitted maximal effect; tags describe the fitted curve by direction and shape.

Row | Compound | activity change, negative = inhibition | Potency
1 | O=c1c(-c2cc(O)c(O)c(O)c2)coc2cc(O)c(O)c(O)c12 | inactive: 23.6% | –
2 | Cc1cccc(NC(=O)c2cc(=O)c3ccccc3o2)n1 | – | inconclusive: 0.316 µM [inhibitor, full curve, poor fit]
3 | CC12CCC3c4ccc(OCc5ccccc5)cc4CCC3C1CC(O)C2O (stereo not given) | inactive: 0.347% | –
4 | O=C(Nc1cccc(-c2cnc3ccccc3n2)c1)c1ccccc1 | inactive: -6.66% | –
5 | Cc1ccc(N/N=C/c2c(O)cc(C)oc2=O)cc1 | – | inconclusive: 3.98 µM [inhibitor, partial curve]
6 | CN(c1ccc(OCC(=O)Nc2ccc3[nH]c(=O)[nH]c3c2)cc1)S(=O)(=O)c1ccc(Cl)cc1 | – | inconclusive: 25.1 µM [inhibitor, single point]
7 | CCCCC/C=C\C/C=C\C/C=C\C/C=C\CCCC(=O)C(F)(F)F | – | inconclusive: 20 µM [inhibitor, single point]
8 | O=C(N/N=C/c1ccc(OCCCF)cc1)c1cc(OCC(F)(F)F)ccc1OCC(F)(F)F | – | inconclusive: 7.94 µM [inhibitor, full curve, poor fit]
9 | O=C(COC(=O)Cc1ccc(S(=O)(=O)N2CCCCC2)s1)Nc1ccc2c(c1)OCO2 | – | inconclusive: 25.1 µM [inhibitor, single point]
10 | CCc1ccc(C2CC(=O)NC(SCC(=O)OC(C)C)=C2C#N)cc1 (stereo not given) | inactive: -4.59% | –
11 | Cc1ccc(-c2nnc(C)c(N3CCOCC3)n2)cc1 | – | inconclusive: 6.31 µM [inhibitor, single point]
12 | CC(C)(NO)/C(=N/O)c1cccs1 | – | inconclusive: 15.8 µM [inhibitor, partial curve]
13 | Cc1sc(NC(=O)C2CCCCC2C(=O)O)c(C(N)=O)c1-c1ccc(C(C)(C)C)cc1 (stereo not given) | – | inconclusive: 25.1 µM [inhibitor, single point]
14 | O=C(NCc1cccs1)Nc1cccs1 | – | inconclusive: 15.8 µM [inhibitor, partial curve]
15 | COc1cc(N)c(Cl)cc1C(=O)N[C@H]1CCN(CCCOc2ccc(F)cc2)C[C@@H]1OC | inactive: 42.8% | –
16 | Nc1nc(-c2cccs2)c(NC(=O)c2ccccc2)s1 | – | inconclusive: 15.8 µM [inhibitor, partial curve]
17 | O=c1[nH]c2ccccc2n2c(-c3ccccc3)nnc12 | – | active: 10 µM
18 | COC(=O)CCC/C=C1/SCC(NC(=O)c2ccccc2)C1O (stereo not given) | – | inconclusive: 31.6 µM [inhibitor, single point]
19 | C=CCn1c(SCC)nc2sc3c(c2c1=O)CCc1ccccc1-3 | inactive: -10.6% | –
20 | COc1ccc(-c2nc(=S)[nH][nH]2)cc1 | – | inconclusive: 39.8 µM [inhibitor, single point]
21 | C=CCn1c(N)c(C(=O)NCCC2=CCCCC2)sc1=S | – | inconclusive: 31.6 µM [inhibitor, single point]
22 | C/C(=C\CNc1ncnc2c1ncn2[C@@H]1O[C@H](CO)[C@@H](O)[C@H]1O)CO | inactive: -5.98% [at 0.0915 µM] | –
23 | CCOC(=O)c1ccc(-n2c(N)c(C(=O)NCC3CCCO3)sc2=S)cc1 (stereo not given) | inactive: -12.7% | –
24 | c1ccc(CN2COc3c(ccc4c5c(ccc34)CN(Cc3ccccc3)CO5)C2)cc1 | inactive: -8.44% [at 11.4 µM] | –

Row | Compound | activity change, negative = inhibition | Potency
25 | COc1cc(CNc2ccc3[nH]c(=O)[nH]c3c2)cc(Cl)c1OCC(=O)NC(C)(C)C | inactive: -0.889% | –
26 | CC(=O)[C@@H]1[C@@H]2C(=O)N(C3CCCCC3)C(=O)[C@@H]2C2c3ccccc3C=CN21 (stereo not given in full) | – | inconclusive: 12.6 µM [inhibitor, partial curve]
27 | CCc1sc2nc(SCC(=O)Nc3cc(C)on3)n(-c3cccc(OC)c3)c(=O)c2c1C | – | inconclusive: 20 µM [inhibitor, single point]
28 | COc1ccc(C2=CC(c3sccc3C)n3nnnc3N2)cc1 (stereo not given) | – | inconclusive: 15.8 µM [inhibitor, partial curve]
29 | Cn1c(SCC(=O)Nc2ccc3nc(SCC(=O)N4CCCC4)sc3c2)nnc1-c1ccc(N)cc1 | – | inconclusive: 12.6 µM [inhibitor, partial curve]
30 | C[C@H](N[C@@H](C)COc1ccccc1)[C@H](O)c1ccc(O)cc1 | inactive: 5.8% [at 25.6 µM] | –
31 | Cc1c(-c2ccccc2)sc(N)c1C(=O)N1CCOCC1 | – | inconclusive: 15.8 µM [inhibitor, partial curve]
32 | O=c1c(O)c(-c2ccc(O)c(O)c2)oc2ccccc12 | – | active: 12.6 µM
33 | O=c1nc2n(c3sc4c(c13)CCCC4)C(CBr)CS2 (stereo not given) | – | inconclusive: 31.6 µM [inhibitor, partial curve]
34 | COc1ccc(NC(=S)Nc2cc(-c3ccccc3)[nH]n2)cc1Cl | – | inconclusive: 12.6 µM [inhibitor, single point]
35 | COc1cc(OC)c2c(=O)c(-c3ccc4c(c3)OCO4)coc2c1 | inactive: 3.13% | –
36 | CCS(=O)(=O)N1CCC(C(=O)NCCCN2CCCC2)CC1 | – | inconclusive: 0.251 µM [inhibitor, full curve, poor fit]
37 | COC(=O)c1cc(Br)c(=O)n(-c2cc(C)on2)c1 | inactive: -1.17% | –
38 | CCCC[C@@H](C=O)NC(=O)[C@H](CC(C)C)NC(=O)[C@H](CC(C)C)NC(C)=O | inactive: 3.37% [at 0.0915 µM] | –
39 | NC(=S)N/N=C/c1ccc(-c2cc(Cl)ccc2Cl)o1 | – | inconclusive: 10 µM [inhibitor, partial curve]
40 | COc1cccc(Nc2nc(-c3cccc(N4C(=O)c5ccccc5C4=O)c3)cs2)c1 | – | inconclusive: 5.01 µM [inhibitor, full curve]
41 | COc1ccc(-n2ncc3c(NCc4cccs4)ncnc32)cc1 | inactive: 11.2% | –
42 | Cc1ccc2cc(CN(CCN3CCOCC3)Cc3nnnn3Cc3ccco3)c(=O)[nH]c2c1C | inactive: 19.3% | –
43 | O=[N+]([O-])c1ccc(N2CCCC2)cc1NCc1ccccc1 | – | inconclusive: 0.199 µM [inhibitor, full curve]
44 | COc1ccc(CC(=O)Nc2ccc(-c3nnc(-c4ccccc4)o3)cc2)cc1OC | – | inconclusive: 31.6 µM [inhibitor, single point]
45 | CCCN(CCC)c1nc(Cl)nc(NCc2ccco2)n1 | – | inconclusive: 7.94 µM [inhibitor, single point]
46 | CNc1cc(N2CCCCCC2)ccc1[N+](=O)[O-] | – | inconclusive: 20 µM [inhibitor, single point]
47 | Cc1[nH]n(-c2ccccc2)c(=O)c1Sc1ccc(Cl)cc1 | – | inconclusive: 10 µM [inhibitor, partial curve]
48 | CCOC(=S)NC(=O)c1sc2ccccc2c1Cl | – | inconclusive: 25.1 µM [inhibitor, single point]

Row | Compound | activity change, negative = inhibition | Potency
49 | COc1ccccc1NC(=O)c1sc2nc(-c3ccco3)ccc2c1N | – | inconclusive: 20 µM [inhibitor, partial curve]
50 | O=C(NC(=S)Nc1ccccc1Cl)c1csnn1 | – | inconclusive: 20 µM [inhibitor, partial curve]
51 | Cc1ccc(-n2nc3c(c2NC(=O)c2ccc(Br)o2)CSC3)c(C)c1 | – | inconclusive: 25.1 µM [inhibitor, single point]
52 | O=C1C=C(c2ccc(Cl)cc2)C(=O)N1Nc1ccccc1 | – | inconclusive: 3.16 µM [inhibitor, full curve]
53 | Cc1ccc(-c2c3c(=O)n(C)c(=O)n(C)c3cn2Cc2ccccc2)cc1 | – | inconclusive: 31.6 µM [inhibitor, single point]
54 | Cc1nc(SCC(=O)Nc2ccc3c(c2)OCO3)c(C#N)c2c1CCCC2 | inactive: -4.71% | –
55 | COc1ccc(CCN2C(=S)NC3CC2(C)Oc2ccc([N+](=O)[O-])cc23)cc1OC (stereo not given) | – | inconclusive: 31.6 µM [inhibitor, single point]
56 | COC(=O)c1c(C)n(-c2ccccc2)c2ccc(O)cc12 | – | inconclusive: 12.6 µM [inhibitor, partial curve]
57 | Cc1cccc[n+]1C1C(c2ccccc2)C(C#N)=C(C(=C=[N-])C#N)NC1(O)C1CC1 (stereo not given) | – | inconclusive: 12.6 µM [inhibitor, partial curve]
58 | CCN(CC)c1ccc(C=Nc2ccc(N(C)C)cc2)c(O)c1 | – | inconclusive: 12.6 µM [inhibitor, partial curve]
59 | COc1ccc(N2CCN(C(=O)CSc3nnc4n3C(C)(C)Cc3ccccc3-4)CC2)cc1 | inactive: 6.63% | –
60 | Cc1cc(/C=N/n2cnnc2)c(C)n1-c1ccc(OCc2ccccc2F)cc1 | – | inconclusive: 0.316 µM [inhibitor, full curve, poor fit]
61 | O=C(CN1C(=O)C2CC=CCC2C1=O)Nc1nnc(SCc2c(Cl)cccc2Cl)s1 (stereo not given) | – | inconclusive: 20 µM [inhibitor, partial curve]
62 | Nc1nc(Sc2ccc([N+](=O)[O-])c3nonc23)c2[nH]cnc2n1 | – | inconclusive: 3.16 µM [inhibitor, single point]
63 | O=C(Nc1cccc(Cl)c1)N1CCCC1 | inactive: -9.63% | –
64 | CCOc1cc(C2C(C#N)=C(N)Oc3n[nH]c(-c4ccccc4)c32)ccc1O (stereo not given) | – | inconclusive: 25.1 µM [inhibitor, single point]
65 | CN(C)c1ccc(N/C=C/C(=O)c2ccc(F)cc2)cc1 | – | inconclusive: 25.1 µM [inhibitor, single point]
66 | Cc1ccc(C)c(NC(=O)Cn2nnc(C(=O)NCc3cccs3)c2N)c1 | – | inconclusive: 31.6 µM [inhibitor, single point]
67 | CCCc1ccc(Oc2cn[nH]c2-c2ccc(O)c(C)c2O)cc1 | inactive: -3.03% | –
68 | COc1ccccc1/C=C\C=N\n1c(C2CCCCC2)n[nH]c1=S | – | active: 12.6 µM
69 | CN1c2ccccc2C(C)(C)C12C=Cc1cc(O)ccc1O2 (stereo not given) | – | inconclusive: 10 µM [inhibitor, partial curve]
70 | N#C/C(C(=O)c1ccccc1)=C1/SC=C(N)N1c1ccccc1 | – | inconclusive: 25.1 µM [inhibitor, partial curve]
